# Results from the supplement of paper PMC11417369.
# The other results are listed elsewhere or left out.
# Tested on: PfSIP2 AP2 domain 1 (GST-tagged)
# Test: gcPBM binding intensity (ln(normalized median fluorescence intensity)); higher = stronger DNA binding
# In short: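 Alexa488 anti-GST antibody, scanned at 488 nm, detected GST-tagged P. falciparum DNA-binding domains that had been expressed in E. coli and incubated for 1 h on an Agilent 4 × 180k array. The array carried primer-extended double-stranded 36-bp intergenic genomic probes and negative controls. Binding intensity is the highest Masliner-normalised natural-log median intensity across replicate spots of either orientation of each probe.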
row,Sequence,gcPBM binding intensity (ln)
1,TATTATAGAAATTTAATGTTGGACAAAAAAATGAAA [CACACA_negctrl_site1351],7.09
2,TCTTAATATCGTTTCTCACACATATACAAACATAAA [CACACA_site5700],7.47
3,AATATATGAATTATATGTACATATAGATAAGTCACA [XGTACX_site7637],7.22
4,AGAGAGAAAGCTATAACATGCAACAATTTTTAGAAC [TGCATGCA_site596],7.05
5,AAATTATTTATTTTATGTACATATTATTAAAGTTAA [XGTACX_site552],7.37
6,ATAAATGACAAATTAACACACATATATTATAGATAT [CACACA_site7770],6.86
7,ATCTATATTTAATTTACACACAAAAAAAATTGTTGG [CACACA_site6582],6.96
8,AAAATGTGATATGTAAATATATATGTATGTATATAT [CACACA_negctrl_site1748],7.09
9,TAATGCATTTTCGCATGTACATATTTCTCTTTATAT [XGTACX_site8915],7
10,GTTTGGTGGTGTTTTGGTACGTACGGGGGGGTATGT [XGTACX_site1983],9.74
11,TTTTTTTTTTTTTATTGTACTTATTTTTTTATGTTT [XGTACX_site7725],7.59
12,GTATTATATATATAGGTGCATATATATATATAAATA [GTGCAC_site9787],10.8
13,AAATATAAAGGATTAATATTATATATATATATATAT [XGTACX_negctrl_site211],9.18
14,ACACATACATATACATACACATTGTTTTCATGCATC [XGTACX_negctrl_site126],7.64
15,TATATGTGTCTACAGGTGCATATATCATATATTGCT,9.84
16,TAAATAAATTTATACACACACACACGGATATAAATA [CACACA_site6532],7.08
17,TATAAATATTTATACACACACATATATTTATATATC [CACACA_site6366],7.06
18,TATGTATTTTTATGCACACATGCGTGGCTTATATAA [CACACA_site387],7.39
19,ATATTTTCTTTAAATTGTACATATTGTGATACAAAA [XGTACX_site5886],7.18
20,ATTTTTTTTTTTTTTTTTTTTTTGTTTATACAAAAT [CACACA_negctrl_site1241],6.78
21,TTTCATTTAGCTTTTACACACTATATATTATTGATT [CACACA_site16],7.11
22,TATATACATACATGTAGTACCTAATTCGGTCCCGTA [XGTACX_site2702],6.79

row,Sequence,gcPBM binding intensity (ln)
1,ATATATATATTTGTATGTACATATCATATTGTGTGT [XGTACX_site1580],8.43
2,ATACGTGGGCAAAAAGTGCATATAATCAAAAAAAAA [GTGCAC_site9961],9.03
3,AAGATATTTGAATATACACACGATTTAAATTTAATA [CACACA_site3866],6.89
4,TTCTTTCTGTTTTATTTATAATAATTTATGATAAAA [CACACA_negctrl_site766],7.46
5,TGTTTTTAATTTCGCACACACCTTGTGGAAAAAAAA [CACACA_site4482],7.36
6,AAAATATTTATTACTTCACACATTATTGTATTTATA [CACACA_site5082],6.87
7,CATATATTATTATATGCACACATGAAAATATACAAA [CACACA_site2795],7.7
8,TTGAAATATACGTAAGTAAATTTCATTTGGTTGTGT [XGTACX_negctrl_site600],6.9
9,GTATAACTTTTGCGCGTACACACATTTATCCTCTTT [CACACA_site208],7.63
10,ACGTATAATATGTACACACACATATATACAAAAAAA [CACACA_site917],7.35
11,TTTCTTTTTTTATAATCCACATTGGGAAAATCAAAA [TGCATGCA_negctrl_site159],6.83
12,AAAGTTGTTACGAACATACACACGAACATACTCACG [CACACA_site604],6.82
13,TAGAATATCCCCTACACACCCAAATAATTTACAAAT [CACACA_site4825],7.03
14,TTAACATATGACATTTTTTCACCCTTCCTTTATTTT [CACACA_negctrl_site1192],6.71
15,ATAAAATCATTCAATGGTACAGAAATACAAAATGTA [XGTACX_site6739],6.96
16,TATGTATAAAAATATTGTACATATTATATATATATA [XGTACX_site2947],8.75
17,TTTTTTTTTTTTTTTTTTTGATTCTTATAAAAATTT [GTGCAC_negctrl_site240],7.04
18,AGGTCACATTTGTCCTCACACATAGATAAATATATA [CACACA_site5460],6.96
19,AATTAGCATTAAAAATGTACAAAAGAAAAAAATATA [XGTACX_site3816],6.7
20,GTCAAAAATAATATATGTACTTATAATAGATAAATG [XGTACX_site7755],7.13
21,ATAATTTGATCAATTTTTCATTTTTCATTTTTTTAA [CACACA_negctrl_site1252],6.68
22,AGAAAGAATGAAAAATGTACATATATGTAATAGCTA [XGTACX_site364],6.97

row,Sequence,gcPBM binding intensity (ln)
1,TAAAATTTAAAAAGGTGTACACTATAAATTAAAATA [XGTACX_site2081],7.01
2,AATCAAAATTCATTAACACACAATTTTAATATTCTT [CACACA_site5178],6.9
3,TTTTTTAAAATATGGACACACATATATATATATGTA [CACACA_site2784],7.21
4,TATTTTTATAAGAGCATGCACTGTTTAAAATGGTAT,8.54
5,ATGATATGGATAAATACACACAATAAAATAATGTCT [CACACA_site6786],7
6,TTTATTTATTTATGTTGTACAAGTTTATACTGGAAT [XGTACX_site6479],7.17
7,TTTTAACAAAACAAAACAAAATAATATAAAGATAAC [TGCATGCA_negctrl_site154],7.36
8,TTTTGATATAAAAAAAGTACATTAATAATATTAATT [XGTACX_site4248],7.07
9,CAGTATTCTTCTATATGTACTTATTTAAATATTCTT [XGTACX_site7555],7.01
10,TAAATAATAATAAATGTGCACAGGTATTAACAAAAA [GTGCAC_site9988],8.9
11,TATAAATCTATAAATGCACACAAGGGAAGAAAAACG [CACACA_site2965],8.89
12,TATTATTCCAAGAAAAAAAAAAATAAAAAAAAAAAA [CACACA_negctrl_site1424],6.65
13,CAAACAATTAAACAAACACACATATACAAGTATATA [CACACA_site8639],7
14,AAAGAACAAATAAAACATAAAATAATATATATAGAT [CACACA_negctrl_site1764],7.02
15,ATTAAAATTTGTTAAAGTACTTAATAAAAATTTTTC [XGTACX_site1959],6.93
16,AATGACTACATAATAGTGCAATATTAAAGAAAATTA,8.55
17,TGTATATCATAAGATGGTACACGTGTGTGCGTATGC [XGTACX_site2255],7.26
18,ATTCTTAAAAAAAAATGTACACATGAACAATATGTA [XGTACX_site362],7
19,TTTAAGATTTTGTAATGTACATATATACATATATAT [XGTACX_site399],7.14
20,TATATATTATATATGTGTACTCACTAACAAAAATTA [XGTACX_site6285],7.3
21,AGGTGAATATTTTTTACACACATAAAAAAAATATAT [CACACA_site57],7.03
22,AAATTATATAAAGGAACACACATTTTATTTTATTTT [CACACA_site1500],6.75

row,Sequence,gcPBM binding intensity (ln)
1,TATATTTTTATAATAACACACGATATATGTTTAGGA [CACACA_site1283],6.76
2,TTTTTAGTTAATTAAACACACAAAAAAAAAAATAAA [CACACA_site3930],6.85
3,ATAATATTGTGGTATACACACCTTACAAAAAGGTAC [CACACA_site5582],7.11
4,AATATTTTTATATATATACACACTTACATATATATA [CACACA_site3609],7.14
5,TATTTTTTTACATATTGTACATAATATAAAACTTAC [XGTACX_site8273],7.17
6,TATATTTGGTTTCATTCATTTTTATAGAAATCTCAA [CACACA_negctrl_site1412],6.94
7,CACACGTATATATATACACACTAAAATACCCAGACA [CACACA_site6142],7.12
8,ATTTTTTCATATTCTACACACGTGAACAAATGTGTC [CACACA_site3007],7.08
9,ATATAATAGAAGTGTACACACATATTTATGGGTGTA [CACACA_site5686],7.04
10,GTATATAATTATATATGTACTAAATAAATATTTTTA [XGTACX_site6062],6.97
11,TTTTCTAAAAAAAGTTGTACATCTTATTTATATTAT [XGTACX_site295],6.94
12,AAAAAATAAAAAAATAAAAAATAAAAAATAAAAAAT [TGCATGCA_negctrl_site90],6.72
13,TATAAAAATAAATAAATAAATAAATAAATAAATAAA [TGCATGCA_negctrl_site310],7.08
14,AAAAATTACCCATCCATACACACATATTTTTTTTAA [CACACA_site2190],7.05
15,ATGTAAGACAAAAAGGGTACATAATGCGTATGTATT [XGTACX_site4666],6.89
16,ATGATCATAAAACACACACACAAAAAAAAAAAAAAA [CACACA_site1805],6.95
17,ATTAATTTTATATATGCACACAAAATATGTTCATAT [CACACA_site9350],7.13
18,TATGTATATATTTGTGCACACCAAAGTTTGATTTTA [CACACA_site1861],9.76
19,TTATAATAAACCTATACACACATAAATAAATAAATA [CACACA_site2581],7.04
20,AATAATATTTATTTTTGTACATATGTGCATTATAAA [XGTACX_site3682],7.13
21,TCAAGAATTATATAAACACACATACATACACCCATA [CACACA_site5126],7.28
22,CCATGCATACATTCTTGTACACATTTCTATTATGAG [XGTACX_site39],7.16
